These are literature values, as cited in paper PMC11006913.

Where a chain is given by its changes, count along the chain named. This is one part of the list.

Settings in all cases: PBM; conditions not shown; double strand, one strand shown; scale: upbm affinity estimate (log intensity, higher = more binding, comparable within an allelic series)
Data set [1] concerns the target T1, HESX1 E149K (Homo sapiens) (UniProt Q9UBX0).
T1 sequence: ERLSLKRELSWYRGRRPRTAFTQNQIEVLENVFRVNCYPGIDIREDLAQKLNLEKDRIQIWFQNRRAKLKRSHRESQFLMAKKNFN

Data set [2] has as its target T2, HESX1 N125S (Homo sapiens) (UniProt Q9UBX0).
T2 sequence: T1 sequence with N31S, K55E

Data set [3] concerns the target T3, HESX1 R160C (Homo sapiens) (UniProt Q9UBX0).
T3 sequence: T1 sequence with K55E, R66C

For data set [4], the target named is HOXD13 I297V (Homo sapiens) (UniProt P35453).
Data set [5] has as its target HOXD13 I322L (Homo sapiens) (UniProt P35453).
For data set [6], the target named is HOXD13 N298S (Homo sapiens) (UniProt P35453).
Data set [7] has as its target HOXD13 Q325K (Homo sapiens) (UniProt P35453).
Data set [8] addresses HOXD13 Q325R (Homo sapiens) (UniProt P35453).
Data set [9] has as its target HOXD13 R306W (Homo sapiens) (UniProt P35453).
The target of data set [10] is HOXD13 S316C (Homo sapiens) (UniProt P35453).
A further data set has as its target ISX (Homo sapiens) (UniProt Q2M1V0).
In the next data set the target is ISX R83Q (Homo sapiens) (UniProt Q2M1V0).
Data set [11] addresses PROP1 R112Q (Homo sapiens) (UniProt O75360).
UniProt O75360, sequence (O75360 56-141 R112Q): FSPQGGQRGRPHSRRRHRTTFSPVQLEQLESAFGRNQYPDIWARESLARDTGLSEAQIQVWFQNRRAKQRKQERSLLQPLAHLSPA
For data set [12], the target named is NKX2-5 K183E (Homo sapiens) (UniProt P52952).
For data set [13], the target named is NKX2-5 R161P (Homo sapiens) (UniProt P52952).
The target of data set [14] is NKX2-5 R190C (Homo sapiens) (UniProt P52952).

Turning to AGGCCCGC [8-mer AGGCCCGC], the binding signal in data set [1] is 9.76; in data set [2] it was 7.55; in data set [3], 9.96.

In the case of GGGCCAAC [8-mer GGGCCAAC], the binding signal in [1] is 9.94; in [2] it was 7.95; in [3], 9.97; in data set [4], 9.53; in data set [5], 9.49; in data set [6], 9.44. Further, the binding signal in data set [7] is 9.46; in data set [8], 9.48; in [9] it was 9.48; in [10], 9.49.

AGGACGCC [8-mer AGGACGCC]: the binding signal is 10.1 in data set [1], 7.51 in data set [2] and 10 in data set [3].

Regarding AGGGCCCG [8-mer AGGGCCCG], the binding signal is 9.93 in [1], 7.49 in data set [2] and 10 in [3].

In the case of CGCTCGGC [8-mer CGCTCGGC], the binding signal was 9.93 in data set [1]; 7.72 in [2]; 10 in [3]; 9.19 in data set [4]; 9.35 in data set [5]; 9.29 in [6]. The binding signal is 9.55 in [7], 9.39 in [8], 9.46 in data set [9] and 9.36 in [10].

As for GCGGGCCA [8-mer GCGGGCCA], the binding signal is 9.93 in [1], 7.7 in data set [2] and 9.99 in data set [3].

For AGGCTGGG [8-mer AGGCTGGG], the binding signal is 9.88 in data set [1], 7.73 in [2] and 9.98 in [3].

For AGGCGAGA [8-mer AGGCGAGA], the values for the binding signal in [1], in data set [2] and in data set [3] were 9.92, 7.7 and 9.97, respectively.

As to AACCGGGT [8-mer AACCGGGT], the figures for the binding signal in data set [1], in data set [2] and in data set [3] were 9.97, 7.83 and 10.1, respectively.

As to GGCGTCCC [8-mer GGCGTCCC], the binding signal is 9.87 in data set [1], 7.82 in [2] and 9.96 in [3].

In the case of ACCGAGCG [8-mer ACCGAGCG], the figures for the binding signal in data set [1], in [2] and in [3] were 9.93, 7.73 and 10.1, respectively.

With CCACGGCC [8-mer CCACGGCC], the figures for the binding signal in data set [1], in data set [2] and in data set [3] were 9.87, 7.49 and 10, respectively.

Regarding ACCCACGG [8-mer ACCCACGG], the binding signal in data set [1] is 9.89; in data set [2], 7.87; in data set [3] it was 9.95.

Regarding CCACGCTC [8-mer CCACGCTC], the binding signal in [1] is 10; in data set [2] it was 7.64; in data set [3] it was 9.98.

Turning to CGCAATTA [8-mer CGCAATTA], the binding signal is 11.4 in data set [1]; 11.4 in data set [2]; 10.2 in [3]; 14.7 with ISX (Homo sapiens); 13.1 with ISX R83Q (Homo sapiens).

In the case of CAATTGAC [8-mer CAATTGAC], the binding signal in data set [1] is 10.7; in data set [2], 9.57; in data set [3], 10.3; in data set [11], 12.4.

Turning to ACGATTAA [8-mer ACGATTAA], the binding signal in data set [2] is 9.29.

In the case of CGGCCCAG [8-mer CGGCCCAG], the binding signal was 9.78 in data set [1]; 7.46 in data set [2]; 9.83 in data set [3]; 9.95 in data set [12]; 9.85 in [13]; 9.97 in data set [14].

Turning to CTGCCTCC [8-mer CTGCCTCC], the binding signal was 9.89 in [1]; 7.75 in [2]; 10 in data set [3]; 9.97 in data set [12]; 10 in [13]; 9.99 in data set [14].

Consider AGCCTCCG [8-mer AGCCTCCG], for which the binding signal is 9.81 in [1]; 7.55 in data set [2]; 9.94 in data set [3]; 10.1 in data set [12]; 10.1 in data set [13]; 10 in [14].
